Test results as given in PubChem BioAssay AID1671193 (National Center for Advancing Translational Sciences (NCATS), 2021).
Screen size: about 150,000 compounds; about 180 (0.12%) were called active. This list was built around the results that the source calls inconclusive (neither active nor inactive); the mix of calls is not that of the screen. Calls follow the shape of the dose curve; as a rule, active = well fitted cell-killing curve with a large enough effect; inconclusive = small, poorly fitted or top-dose-only effect, or effect the other way; inactive = flat fitted curve, though single readings scatter. Where the call is inconclusive, the potency comes from a doubtful curve fit.

Experiment: GF-AFC viability counterscreen for inhibitors of alpha-synuclein gene (SNCA) expression; also: nearly all actives have a fitted effect of over 30% in size;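 as to activity change, negative = cytotoxicity: 0% = DMSO-treated cells and -100% = medium-only wells without cells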
Settings: HEK-293-SNCA-luc viability, GF-AFC fluorescence, 24 h; activity change, negative = cytotoxicity: at 57.1 µM (top of the series) unless noted
Summary of the method: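 Cytotoxicity counterscreen: after 24 h compound treatment of genome-edited SNCA-luciferase HEK-293 cells, live-cell protease substrate GF-AFC read by fluorescence after 30 min; activity scaled between DMSO (0%) and medium-only (-100%), curves Hill-fitted.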
Potency is read from the fitted curve at half-maximal effect; tags tell the direction and shape of the fitted curve.

Row | Compound | Potency | activity change, negative = cytotoxicity
1 | CC(C)(C)OC(=O)N1CCC(c2c(C(=O)NCc3ccc4c(c3)OCO4)cnn2-c2ccc(F)cc2F)CC1 | inconclusive: 39.8 µM [cytotoxic, single point] | –
2 | COc1ccc2cc1Nc1ccc(cc1)C[C@H](NC(=O)Cc1cccc(Cl)c1)C(=O)N(C)[C@H](C(=O)NCCC(C)C)C2 | inconclusive: 17.8 µM [cytotoxic, partial curve, poor fit] | –
3 | OCc1ccc(-c2cc(-c3ccncc3)c3cncn3c2)cc1 | – | inactive: 2.01% [at 87.6 µM]
4 | CCOC(=O)c1ccc(NC(=O)CN2C(=O)c3cccnc3Oc3ccc(Cl)cc32)cc1 | inconclusive: 31.6 µM [cytotoxic, partial curve, poor fit] | –
5 | O=C(N[C@H]1[C@H](O)[C@H](O)C[C@@H]1c1ccc(N2CCOCC2)nc1)c1ccc2c(c1)OCCO2 | inconclusive: 7.94 µM [cytotoxic, partial curve, poor fit] | –
6 | CC(=O)Nc1cccc(C(=O)NCc2nnc3ccc(-c4ccc(C)cc4)nn23)c1 | – | inactive: -9.85%
7 | Cc1ccc(OCCSc2nc3ccccc3n2CC(=O)N2CCOCC2)c(C)c1 | inconclusive: 1.12 µM [rising, partial curve, poor fit] | –
8 | CCOc1ccc(NC(=O)CN2C(=O)COc3ccc(S(=O)(=O)Nc4ccccc4)cc32)cc1 | inconclusive: 8.91 µM [cytotoxic, full curve, poor fit] | –
9 | CC(C)N1CCC(CCNC(=O)CCC[C@H]2NC[C@@H]3C[C@H]2CN(Cc2ccccc2)C3)CC1 | – | inactive: 39.3%
10 | Cn1cc(-c2cnc3[nH]cc(CC(=O)Nc4ccccc4Cl)c3c2)cn1 | – | inactive: 5.59% [at 87.6 µM]
11 | COc1ccc(-c2noc(CC3CCN(C(=O)c4cc(Cl)ccc4OC)CC3)n2)cc1 | inconclusive: 39.8 µM [cytotoxic, single point] | –
12 | O=C(NC1CCCC1)N1CCC(C(=O)N2CCC(c3ccccc3)CC2)CC1 | – | inactive: -7.43%
13 | Cc1cc(Nc2cccc(Cl)c2C)n2nc(Cc3ccccc3)nc2n1 | – | inactive: 13%
14 | CN(CCc1ccccn1)c1ccc(-c2nc(COc3ccccc3)no2)cn1 | – | inactive: -15.6%
15 | Fc1ccccc1-c1noc(-c2ncn3c2COC(c2ccccc2Cl)C3)n1 (stereo not drawn) | – | inactive: 2.03%
16 | CC(C)c1nncn1C1CCN(S(=O)(=O)c2cccc(F)c2)CC1 | – | inactive: 2.78%
17 | CN(C)C[C@@H]1CN(Cc2ccncc2)C[C@H]1NC(=O)c1ccc(Cl)cc1 | inconclusive: 25.1 µM [cytotoxic, partial curve, poor fit] | –
18 | O=C(Nc1ccc(C2(C(=O)NCC3CC3)CCCCC2)cc1)C1CC1 | – | inactive: 2.64%
19 | O=C(NC1CCCCCCC1)c1ccc(Cn2ccn3nc4c(c3c2=O)CCCC4)cc1 | inconclusive: 39.8 µM [cytotoxic, single point] | –
20 | O=C(c1ccoc1)N1CCC(N2C(=O)[C@H]3CN(Cc4ccccc4)C[C@H]3C2=O)CC1 | – | inactive: 14.6%
21 | Cc1cc(NC(=O)Cn2ccn3nc(-c4ccc(F)cc4)c(CO)c3c2=O)n[nH]1 | – | inactive: 16.4%
22 | COc1ccc(CN2Cc3cc(NC(=O)c4ccc(Cl)cc4)ccc3OC(C)C2=O)c(OC)c1 (stereo not drawn) | – | inactive: -25.8%

Row | Compound | Potency | activity change, negative = cytotoxicity
23 | Cn1c(C(=O)N2CCn3nc(Cc4ccccc4)cc3C2)cc2ccccc21 | – | inactive: -5.52%
24 | Cc1cn2nc(C(=O)NCc3ccc4c(c3)OCO4)cc2c(N2CCCC2)n1 | – | inactive: 6.09%
25 | Cc1cccc(CNc2nc(-c3ccccc3CN(C)C)nc3ccccc23)c1 | inconclusive: 28.2 µM [cytotoxic, single point] | –
26 | CC(C)NC(=O)C1COC2(CCN(C(=O)c3cccc([N+](=O)[O-])c3)CC2)N1C(=O)c1ccccc1 (stereo not drawn) | inconclusive: 7.08 µM [cytotoxic, single point] | –
27 | CCOCC(=O)N1CCCN(S(C)(=O)=O)c2ccccc21 | – | inactive: 6.48%
28 | COc1ccc(NC(=O)N2C[C@@H]3C[C@H](C2)c2ccc(NS(=O)(=O)c4cccc(F)c4)c(=O)n2C3)cc1 | inconclusive: 10 µM [cytotoxic, partial curve] | –
29 | CCc1c(C)sc2c1CCN(Cc1cccc(F)c1)C2c1ccccc1 (stereo not drawn) | inconclusive: 25.1 µM [cytotoxic, partial curve] | –
30 | COCC1CCCN(C(=O)c2cc(Cn3c(C)nc4ccccc43)[nH]n2)C1 (stereo not drawn) | – | inactive: -9.47%
31 | O=C(CN1C(=O)COc2ccc(S(=O)(=O)N3CCCCCC3)cc21)NCc1ccc(Cl)cc1 | inconclusive: 15.8 µM [cytotoxic, single point] | –
32 | CSc1cccc(NC(=O)Cn2nc3c(cc2=O)CCCCC3)c1 | inconclusive: 12.6 µM [cytotoxic, partial curve, poor fit] | –
33 | COc1ccccc1C(=O)NCc1nnc2cc(-c3nc(C4CC4)no3)ccn12 | – | inactive: -8.03%
34 | C=C(C)C(=O)OC1C(OC(C)=O)/C(C=O)=C\CC/C(CO)=C/C2OC(=O)C(=C)C21 (stereo not drawn) | inconclusive: 9.22 µM [cytotoxic, single point] | –
35 | Cc1ccc(C(=O)c2cn(Cc3ccccc3)c3nc(C)ccc3c2=O)cc1 | inconclusive: 20 µM [cytotoxic, partial curve, poor fit] | –
36 | CCCCN(C)C(=O)c1ccc2c(c1)N(Cc1cccc(F)c1)C(=O)c1ccccc1S2 | inconclusive: 14.1 µM [cytotoxic, partial curve, poor fit] | –
37 | Cc1cccc(-n2c(=O)c3c4c(sc3n3c(C)nnc23)CCCC4)c1 | inconclusive: 7.94 µM [cytotoxic, single point] | –
38 | O=C(c1ccc2c(c1)OCO2)N1CC2(C1)C(=O)Nc1ccccc12 | – | inactive: -1.84%
39 | CCCCN(CCCNC(=O)c1cc(Nc2ccccc2OC)nc2ccccc12)c1ccccc1 | inconclusive: 7.94 µM [rising, partial curve, poor fit] | –
40 | COc1ccc(S(=O)(=O)N2CCC(n3cnnc3-c3ccccc3)CC2)cc1OC | – | inactive: -2.58%
41 | CN(C)C(=O)N1CCN(Cc2ccccc2-c2ccccc2F)CC1 | – | inactive: -0.64% [at 12.5 µM]
42 | C/C=C/CN1C[C@@H](NC(=O)c2cccc(N(C)C)c2)C[C@H]1C(=O)NCC | inconclusive: 2.24 µM [cytotoxic, full curve, poor fit] | –
43 | C[S+](=O)([O-])c1ccc(-c2nc(C(=O)NCCc3ccc(Cl)cc3)n3ccncc23)cc1 | – | inactive: 5.22%
